The campaign covered roughly 310,000 compounds. About 14,000 (4.5%) showed an effect of 50% or more. Effects have a minus sign here. The list shows a part of the results.
target: human ether-à-go-go-related gene (hERG) potassium channel (human, UniProt Q12809); assay: primary screen, population patch clamp on CHO cells stably expressing hERG
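Note: peak tail current of the secondary pulse compared with the same well before compound.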

Chain of human ether-à-go-go-related gene (hERG) potassium channel (Q12809 whole entry, looked up): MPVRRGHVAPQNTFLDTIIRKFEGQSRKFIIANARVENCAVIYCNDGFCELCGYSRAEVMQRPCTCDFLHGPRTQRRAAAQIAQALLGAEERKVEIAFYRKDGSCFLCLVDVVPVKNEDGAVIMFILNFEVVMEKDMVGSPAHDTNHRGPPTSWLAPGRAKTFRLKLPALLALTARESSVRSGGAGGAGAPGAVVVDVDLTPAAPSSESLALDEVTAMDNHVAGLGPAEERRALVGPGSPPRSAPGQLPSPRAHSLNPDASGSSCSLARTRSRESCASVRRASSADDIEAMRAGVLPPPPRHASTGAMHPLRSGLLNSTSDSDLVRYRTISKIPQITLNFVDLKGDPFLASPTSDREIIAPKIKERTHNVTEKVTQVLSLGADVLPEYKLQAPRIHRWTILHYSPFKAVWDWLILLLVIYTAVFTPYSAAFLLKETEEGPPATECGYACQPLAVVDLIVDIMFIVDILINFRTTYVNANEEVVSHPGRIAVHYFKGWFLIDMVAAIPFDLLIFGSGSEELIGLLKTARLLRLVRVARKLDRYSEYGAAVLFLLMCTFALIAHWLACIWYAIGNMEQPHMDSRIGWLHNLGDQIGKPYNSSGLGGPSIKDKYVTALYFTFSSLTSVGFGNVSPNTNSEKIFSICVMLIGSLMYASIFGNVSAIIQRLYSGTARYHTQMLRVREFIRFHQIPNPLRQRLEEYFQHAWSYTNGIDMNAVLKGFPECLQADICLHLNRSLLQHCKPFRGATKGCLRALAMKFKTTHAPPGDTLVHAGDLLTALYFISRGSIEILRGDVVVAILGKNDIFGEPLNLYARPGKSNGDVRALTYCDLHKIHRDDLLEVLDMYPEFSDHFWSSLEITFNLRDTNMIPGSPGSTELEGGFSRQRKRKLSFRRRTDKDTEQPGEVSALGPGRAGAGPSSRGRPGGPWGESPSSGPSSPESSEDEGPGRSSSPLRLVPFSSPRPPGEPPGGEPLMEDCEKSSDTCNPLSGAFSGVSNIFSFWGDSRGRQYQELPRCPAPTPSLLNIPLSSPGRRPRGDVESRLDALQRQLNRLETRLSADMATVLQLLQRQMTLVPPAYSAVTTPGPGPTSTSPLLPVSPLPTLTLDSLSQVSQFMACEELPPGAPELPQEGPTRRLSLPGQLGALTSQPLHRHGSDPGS

Going from `O=C(NCc1ccccn1)c1ccco1` to `O=C(CSc1nncn1-c1ccccn1)Nc1cccc(Cl)c1`, the “hERG current change (%, negative = inhibition) at 10uM” value falls from 14.8% to -10.8%.

First: COC(=O)c1sc(N2CCN(Cc3ccccc3)CC2)nc1N
Second: CC1(C)C2CCC(C2)C1(C)NC(=O)CN1CCN(Cc2ccccc2)CC1.Cl (centres unmarked)
The “hERG current change (%, negative = inhibition) at 10uM” value of the first is higher: 11.7% for the first, 7.77% for the second.

Compared with `O=C(O)c1nnn(-c2cccc(C(F)(F)F)c2)c1-c1ccccc1`, `O=C(C(=O)N1CC=C(c2ccccc2)CC1)c1c[nH]c2ccccc12` is lower in “hERG current change (%, negative = inhibition) at 10uM” value: 13.6% for the first, 3.04% for the second.

First: Cc1ccc(NC(=O)CCc2nnc3ccc(N4CCC5(CC4)OCCO5)nn23)nc1
Second: O=C(c1ccc(CNS(=O)(=O)c2ccc(Br)cc2)cc1)N1CCC2(CC1)OCCO2
The “hERG current change (%, negative = inhibition) at 10uM” value of the first is higher: 4.15% for the first, -20.4% for the second.

Going from `O=C(Nc1ccc(C(=O)O)cc1)/C(=C/c1ccc2c(c1)OCO2)NC(=O)c1cccc(Br)c1` to `O=C(O)c1ccc(N/N=C/c2ccc3ncccc3c2)cc1`, the “hERG current change (%, negative = inhibition) at 10uM” value rises from 7.25% to 11.3%.

First: CC(=O)N1CCN(C(=O)c2cccc(NS(=O)(=O)c3ccc(Br)cc3)c2)CC1
Second: CCC(C)NS(=O)(=O)c1ccc(NC(=O)C2CCN(C(=O)c3ccco3)CC2)cc1 (centres unmarked)
The “hERG current change (%, negative = inhibition) at 10uM” value of the first is higher: 1.69% for the first, -3.86% for the second.

First: COc1nc(NCC(C)C)nc(Oc2ccc(OCc3ccccc3)nn2)n1
Second: COc1cc(CSC)nc(-c2ccccc2)n1
The “hERG current change (%, negative = inhibition) at 10uM” value of the first is lower: -26.5% for the first, 4.9% for the second.

First: Cc1ccc(NS(=O)(=O)c2ccc(/C=C/C(=O)O)cc2)cc1Cl
Second: Cc1ccc(C(=O)NC(=S)NNS(=O)(=O)c2ccccc2)cc1
The “hERG current change (%, negative = inhibition) at 10uM” value of the first is lower: 9.88% for the first, 10.9% for the second.

Going from `COc1ccc(NC(C)=O)cc1NC(=O)CN1CCN(C2c3ccccc3-c3ccccc32)CC1` to `COc1ccccc1C(=O)Nc1ccc(Nc2ccccc2)cc1`, the “hERG current change (%, negative = inhibition) at 10uM” value rises from 3.55% to 18.4%.

Compared with `O=C(NCCc1ccccc1)C1CCCN(c2nc3ccccc3s2)C1` (centres unmarked), `CC(Sc1nc2ccccc2s1)C(=O)N(C)Cc1ccccc1` (centres unmarked) is higher in “hERG current change (%, negative = inhibition) at 10uM” value: 4.09% for the first, 12.5% for the second.

Compared with `Cc1ccnc(NC(=O)C(C)N2C(=O)c3ccccc3S2(=O)=O)c1` (centres unmarked), `Cc1cccc(N(Cc2ccccc2)C(=O)CSC(C)C(=O)Nc2cc(C)on2)c1` (centres unmarked) is lower in “hERG current change (%, negative = inhibition) at 10uM” value: 6.37% for the first, -53% for the second.

First: Cn1c(=O)[nH]c(=O)c2c1nc(SCCO)n2CCCc1ccccc1
Second: COc1cc2nc(SCC(=O)NCCc3ccccc3)n(Cc3ccco3)c(=O)c2cc1OC
The “hERG current change (%, negative = inhibition) at 10uM” value of the first is higher: -4.68% for the first, -43.3% for the second.

Compared with `O=C(Cc1cccc(C(F)(F)F)c1)Nc1cc(S(=O)(=O)N2CCOCC2)ccc1N1CCCC1`, `COc1ccccc1N1CCN(c2ccc3cc(S(=O)(=O)N4CCCCC4)ccc3n2)CC1` is higher in “hERG current change (%, negative = inhibition) at 10uM” value: -25.5% for the first, 5.2% for the second.

Compared with `COc1cccc(CCNC(=O)c2ccc(OC)c(OC3CCN(C(C)C)CC3)c2)c1`, `COc1ccccc1C(=O)Nc1ccc2c(c1)nc(CN1CCCCC1)n2C` is higher in “hERG current change (%, negative = inhibition) at 10uM” value: -57.4% for the first, -21.8% for the second.

Compared with `COc1cc(/C=C2\SC(=Nc3ccc(O)cc3)NC2=O)cc(OC)c1OC`, `COc1cccc(/C=C(\C)C(=O)c2c(C)cc(C)[nH]c2=O)c1OC` is lower in “hERG current change (%, negative = inhibition) at 10uM” value: 11.3% for the first, 11.2% for the second.

Compared with `COC(=O)CSc1nnc(-c2cccc(NC(=O)c3ccc(C)cc3)c2)n1C`, `COc1ccc(-c2nnc(SCc3ccc(C(=O)O)cc3)n2N)cc1` is higher in “hERG current change (%, negative = inhibition) at 10uM” value: -34.9% for the first, 6.5% for the second.

First: COC(=O)C1=C(c2cccc(OCc3ccccc3)c2)C[C@@H]2CC[C@H]1N2C(=O)NCc1ccc2[nH]ccc2c1
Second: CCN(CC(=O)Nc1ccc(OC)cc1)C(=O)c1ccc(=O)n(Cc2ccccc2)n1
The “hERG current change (%, negative = inhibition) at 10uM” value of the first is higher: 16.1% for the first, -31% for the second.

Compared with `N#CC1(Cc2ccccc2)c2ccccc2C=CN1C(=O)c1ccccc1` (centres unmarked), `C/C(=N\N(c1ccccc1)c1ccccc1)c1ccc(N)cc1` is lower in “hERG current change (%, negative = inhibition) at 10uM” value: 15.3% for the first, 7.43% for the second.

Compared with `CCc1ccc(N(CC(=O)O)S(=O)(=O)c2c(C)noc2C)cc1`, `Cc1ccc(OCCC(=O)NCCc2ccc(S(N)(=O)=O)cc2)cc1` is lower in “hERG current change (%, negative = inhibition) at 10uM” value: 15.8% for the first, -10.1% for the second.

Going from `NS(=O)(=O)c1ccc(NC(=O)c2cccc(N3C(=O)c4ccccc4C3=O)c2)cc1` to `Cc1ccc(NC(=O)Cn2c(O)c(N=NS(=O)(=O)c3ccc(C)cc3)c3ccccc32)cc1`, the “hERG current change (%, negative = inhibition) at 10uM” value falls from 13.3% to 0.453%.

First: COc1ccccc1C1NC(=O)c2ccccc2O1 (centres unmarked)
Second: COc1cc2cc(CN(Cc3cccs3)C(=S)Nc3ccccc3)c(=O)[nH]c2cc1OC
The “hERG current change (%, negative = inhibition) at 10uM” value of the first is lower: -7.19% for the first, -6.81% for the second.

Going from `Cc1ccc(NC(=O)CCC(=O)N/N=C/c2ccc(O)cc2O)cc1` to `Cc1ccc(NC(=O)c2nc[nH]c2C(=O)N[C@@H](C)c2ccccc2)cc1`, the “hERG current change (%, negative = inhibition) at 10uM” value rises from 15.3% to 17.5%.

First: CCOC(=O)c1nnc2cc(C)nn2c1C
Second: CCOc1ccc2[nH]c3nc(SCC(=O)OC(C)C)nnc3c2c1
The “hERG current change (%, negative = inhibition) at 10uM” value of the first is higher: 16.5% for the first, 13.8% for the second.

Going from `O=c1oc2c(CN3CCOCC3)c(O)ccc2c2ccccc12` to `Cc1cc(N2CCOCC2)ccc1/C=C1\C(=O)NC(=O)N(c2ccccc2)C1=O`, the “hERG current change (%, negative = inhibition) at 10uM” value rises from -20% to 10.8%.

Compared with `CCCCNC(=O)CSc1nc2ccsc2c(=O)n1C1CCN(C(=O)OCC)CC1`, `CCOC(=O)C1CCN(C(=O)Cn2cc3c(n2)CCC(C)C3)CC1` (centres unmarked) is higher in “hERG current change (%, negative = inhibition) at 10uM” value: -22.2% for the first, -5% for the second.

First: CCO.C[C@H]1c2cccc(O)c2C(O)=C2C(=O)[C@]3(O)C(O)=C(C(N)=O)C(=O)[C@@H](N(C)C)C3[C@@H](O)C21.Cl.O (some centres unmarked)
Second: CC(=NCc1ccc(F)cc1)c1c(O)n(C)c(=O)n(C)c1=O
The “hERG current change (%, negative = inhibition) at 10uM” value of the first is higher: 16.1% for the first, -27.5% for the second.

Going from `CCNC(=S)NNC(=O)C1CCCCC1` to `COc1ccccc1NC(=O)CC1S/C(=N/N=C(\C)C2CCCCC2)NC1=O` (centres unmarked), the “hERG current change (%, negative = inhibition) at 10uM” value falls from 6.17% to 2.38%.

First: O=C(CN1C(=O)CSc2ccccc21)NCCC1=CCCCC1
Second: CC1CCN(C(=O)Cn2cc(SCC(=O)NCC3CCCO3)c3ccccc32)CC1 (centres unmarked)
The “hERG current change (%, negative = inhibition) at 10uM” value of the first is higher: 0.901% for the first, -16.2% for the second.

Compared with `CC(C)(C)c1cc(Cl)c(O)c(NC(=S)NC(=O)c2cccnc2)c1`, `Cc1ccccc1NC(=S)N(Cc1cccnc1)Cc1ccccc1Cl` is lower in “hERG current change (%, negative = inhibition) at 10uM” value: 5.51% for the first, -11.6% for the second.

First: COc1ccc(NC(=O)CCN2C(=O)c3ccncc3C2=O)cc1OC
Second: O=C(COC(=O)c1ccc(Cl)nc1)Nc1ccc2c(c1)OCO2
The “hERG current change (%, negative = inhibition) at 10uM” value of the first is higher: -7.46% for the first, -20.7% for the second.

Going from `COC(=O)C1CCN(C(=O)COC(=O)[C@@H]2CC(O)CN2S(=O)(=O)c2ccc3c(c2)OCCO3)CC1` (some centres unmarked) to `Cc1cccc(N2CCN(C(=O)CN(C)S(=O)(=O)c3ccc4c(c3)CCC(=O)N4)CC2)c1C`, the “hERG current change (%, negative = inhibition) at 10uM” value falls from 6.94% to -60.5%.

Going from `O=C1c2ccccc2C(=O)c2[nH]c(=O)[nH]c21` to `Cc1nn(CC(=O)O)c2ccccc12`, the “hERG current change (%, negative = inhibition) at 10uM” value rises from 3.81% to 17.7%.

Compared with `CCOC(=O)Oc1ccc2c(=O)c(Oc3cc(C)cc(C)c3)coc2c1`, `CCOC(=O)C1CCN(c2cc3c(cc2NC(=O)c2cc(OC)ccc2Br)n(C)c(=O)n3C)CC1` is higher in “hERG current change (%, negative = inhibition) at 10uM” value: -15.9% for the first, 0.12% for the second.

Going from `CCOC(=O)c1c(NC(=S)Nc2ccc(OC)cc2)sc2c1CCCCC2` to `COc1ccc(CNC(=S)Nc2ccccc2)cc1`, the “hERG current change (%, negative = inhibition) at 10uM” value falls from 12.5% to 7.34%.

Going from `Cc1cc(C)cc(NC(=O)CN2CCN(CCN=CC3=C(O)CC(c4ccc(Cl)cc4)CC3=O)CC2)c1` (centres unmarked) to `Cl.O=C(CN1CCN(C2CCCCC2)CC1)Nc1ccc(Br)cc1`, the “hERG current change (%, negative = inhibition) at 10uM” value falls from -31.9% to -70%.

Going from `CCCCCCCCc1c(O)nc(-n2[nH]c(C)c(CCO)c2=O)[nH]c1=O` to `Cc1ccc(NC(=O)NC(=O)CN2C(=O)NC3(CCc4ccccc43)C2=O)c(C)c1` (centres unmarked), the “hERG current change (%, negative = inhibition) at 10uM” value falls from 5.29% to -26.1%.

First: CC(C)CNC(=O)COC(=O)c1ccc(Cl)c(S(N)(=O)=O)c1
Second: CCC(C)NCCCOc1cc(Cl)ccc1Cl.O=C(O)C(=O)O (centres unmarked)
The “hERG current change (%, negative = inhibition) at 10uM” value of the first is higher: 9.14% for the first, -42.3% for the second.

First: Cn1cc(Br)c(C(=O)NC(=S)Nc2ccc(S(N)(=O)=O)cc2)n1
Second: CCNC(=O)/C(=C\C=C\c1ccccc1)NC(=O)c1ccc(Br)o1
The “hERG current change (%, negative = inhibition) at 10uM” value of the first is higher: 10.4% for the first, -18.2% for the second.

First: Cc1cc(C)c(-c2cc(C(F)(F)F)no2)c(=O)[nH]1
Second: CC1=C(C(=O)Nc2ccc(C)cc2C)C(c2cccs2)NC(=S)N1 (centres unmarked)
The “hERG current change (%, negative = inhibition) at 10uM” value of the first is higher: 9.13% for the first, -5.3% for the second.

Compared with `c1cnc(Oc2ccc3oc4ccccc4c3c2)nc1`, `Fc1ccc(Nc2nc(-c3ccncc3)cs2)cc1` is higher in “hERG current change (%, negative = inhibition) at 10uM” value: -3.14% for the first, 26.1% for the second.

Going from `CCC/C=C1/CCCOC(C(=O)NCc2ccccc2)(C(F)(F)F)C1` (centres unmarked) to `CN(C)c1ccc(-c2cc([C@H]3[C@@H]4C=CCC[C@@]4(C)C(=O)N3Cc3ccccc3)ccc2F)cc1`, the “hERG current change (%, negative = inhibition) at 10uM” value rises from 1.16% to 11.6%.

Compared with `O=C1[C@@H]2[C@H]3CC[C@H](C3)[C@@H]2C(=O)N1O`, `COCCNC(=S)N1CCN(c2nc(-c3ccc(Cl)cc3)cs2)CC1` is lower in “hERG current change (%, negative = inhibition) at 10uM” value: 27.8% for the first, 2.09% for the second.

First: [N-]=[N+]=NCc1cn2cccnc2n1
Second: COc1cc2c(cc1OC)CN(Cc1cc(OC)c3c(c1)OCO3)CC2
The “hERG current change (%, negative = inhibition) at 10uM” value of the first is higher: 26% for the first, 6.31% for the second.

Reference: paper PMC4336329 (PLoS ONE, 2015)
